Publication PMC8813941
No constants are given. Whether binding was seen depends on the method and setting. Binding seen in cells or lysates may run through a third protein. Some binding calls cover weakened binding; strength is not graded here. For some assays here: Tags and fused reporters may be left off the sequences shown. One block for each substance: values may come before it.

Amino acid sequences for entries named in this document (tags omitted). A change or cut given only in a name is not applied to a line headed by its entry. Chains listed by the source or under a name are the forms on record and can include a tag or linker. Residues count along the entry.
UniProt Q969H0: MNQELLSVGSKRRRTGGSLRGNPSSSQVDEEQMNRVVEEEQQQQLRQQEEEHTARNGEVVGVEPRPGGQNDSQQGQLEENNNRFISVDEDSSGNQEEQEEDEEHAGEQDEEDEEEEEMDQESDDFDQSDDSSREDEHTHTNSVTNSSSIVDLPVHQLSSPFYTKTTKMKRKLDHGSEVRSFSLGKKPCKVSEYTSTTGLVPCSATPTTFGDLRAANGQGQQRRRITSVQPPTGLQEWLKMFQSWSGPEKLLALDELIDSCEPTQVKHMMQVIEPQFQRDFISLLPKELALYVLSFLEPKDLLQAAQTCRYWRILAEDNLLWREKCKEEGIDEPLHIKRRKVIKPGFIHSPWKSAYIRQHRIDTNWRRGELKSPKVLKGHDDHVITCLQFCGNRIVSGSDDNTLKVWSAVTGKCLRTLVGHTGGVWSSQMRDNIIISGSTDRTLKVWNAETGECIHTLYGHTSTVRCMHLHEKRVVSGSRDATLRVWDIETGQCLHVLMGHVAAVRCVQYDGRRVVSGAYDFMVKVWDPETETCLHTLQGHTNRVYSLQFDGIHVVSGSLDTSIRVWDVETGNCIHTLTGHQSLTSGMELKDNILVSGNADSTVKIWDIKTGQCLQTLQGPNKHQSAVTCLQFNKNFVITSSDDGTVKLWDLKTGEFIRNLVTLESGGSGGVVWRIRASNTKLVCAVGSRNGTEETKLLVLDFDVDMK
Myc-FBXW7-1–324 (WD40 domain-deleted mutant): residues 1-324 of Q969H0
Myc-FBXW7-1–278 (WD40/F-box domain-deleted mutant): residues 1-278 of Q969H0
UniProt Q9Y297: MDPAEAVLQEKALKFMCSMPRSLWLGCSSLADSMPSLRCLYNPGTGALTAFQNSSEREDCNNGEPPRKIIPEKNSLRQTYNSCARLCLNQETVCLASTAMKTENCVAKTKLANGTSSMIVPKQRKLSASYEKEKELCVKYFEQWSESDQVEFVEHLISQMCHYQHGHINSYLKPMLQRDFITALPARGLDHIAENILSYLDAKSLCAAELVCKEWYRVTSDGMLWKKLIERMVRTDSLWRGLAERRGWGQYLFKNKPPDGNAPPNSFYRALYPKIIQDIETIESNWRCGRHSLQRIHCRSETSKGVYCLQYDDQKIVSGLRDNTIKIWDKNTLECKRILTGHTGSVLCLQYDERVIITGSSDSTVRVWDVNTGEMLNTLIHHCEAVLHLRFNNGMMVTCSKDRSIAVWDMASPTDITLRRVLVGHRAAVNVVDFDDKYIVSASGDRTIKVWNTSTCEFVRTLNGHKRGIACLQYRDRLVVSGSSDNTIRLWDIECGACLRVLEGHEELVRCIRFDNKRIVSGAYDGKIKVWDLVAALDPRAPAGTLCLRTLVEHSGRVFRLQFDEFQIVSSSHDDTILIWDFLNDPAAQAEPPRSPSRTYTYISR
UniProt Q9UKB1: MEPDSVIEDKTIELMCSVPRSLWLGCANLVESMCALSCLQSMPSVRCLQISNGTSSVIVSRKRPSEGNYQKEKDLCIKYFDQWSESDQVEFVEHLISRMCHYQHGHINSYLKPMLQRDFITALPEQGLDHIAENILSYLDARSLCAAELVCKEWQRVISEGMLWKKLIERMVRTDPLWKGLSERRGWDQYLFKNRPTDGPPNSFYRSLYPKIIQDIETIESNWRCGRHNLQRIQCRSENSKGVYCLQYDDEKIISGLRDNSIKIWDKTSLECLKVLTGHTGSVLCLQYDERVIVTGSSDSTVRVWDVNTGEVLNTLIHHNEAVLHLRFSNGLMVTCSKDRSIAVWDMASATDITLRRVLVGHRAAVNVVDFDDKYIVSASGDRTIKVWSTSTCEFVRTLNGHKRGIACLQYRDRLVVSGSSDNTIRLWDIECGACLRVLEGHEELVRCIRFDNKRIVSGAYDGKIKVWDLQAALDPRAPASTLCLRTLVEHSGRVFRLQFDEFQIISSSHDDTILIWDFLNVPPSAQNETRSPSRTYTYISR
UniProt Q13620: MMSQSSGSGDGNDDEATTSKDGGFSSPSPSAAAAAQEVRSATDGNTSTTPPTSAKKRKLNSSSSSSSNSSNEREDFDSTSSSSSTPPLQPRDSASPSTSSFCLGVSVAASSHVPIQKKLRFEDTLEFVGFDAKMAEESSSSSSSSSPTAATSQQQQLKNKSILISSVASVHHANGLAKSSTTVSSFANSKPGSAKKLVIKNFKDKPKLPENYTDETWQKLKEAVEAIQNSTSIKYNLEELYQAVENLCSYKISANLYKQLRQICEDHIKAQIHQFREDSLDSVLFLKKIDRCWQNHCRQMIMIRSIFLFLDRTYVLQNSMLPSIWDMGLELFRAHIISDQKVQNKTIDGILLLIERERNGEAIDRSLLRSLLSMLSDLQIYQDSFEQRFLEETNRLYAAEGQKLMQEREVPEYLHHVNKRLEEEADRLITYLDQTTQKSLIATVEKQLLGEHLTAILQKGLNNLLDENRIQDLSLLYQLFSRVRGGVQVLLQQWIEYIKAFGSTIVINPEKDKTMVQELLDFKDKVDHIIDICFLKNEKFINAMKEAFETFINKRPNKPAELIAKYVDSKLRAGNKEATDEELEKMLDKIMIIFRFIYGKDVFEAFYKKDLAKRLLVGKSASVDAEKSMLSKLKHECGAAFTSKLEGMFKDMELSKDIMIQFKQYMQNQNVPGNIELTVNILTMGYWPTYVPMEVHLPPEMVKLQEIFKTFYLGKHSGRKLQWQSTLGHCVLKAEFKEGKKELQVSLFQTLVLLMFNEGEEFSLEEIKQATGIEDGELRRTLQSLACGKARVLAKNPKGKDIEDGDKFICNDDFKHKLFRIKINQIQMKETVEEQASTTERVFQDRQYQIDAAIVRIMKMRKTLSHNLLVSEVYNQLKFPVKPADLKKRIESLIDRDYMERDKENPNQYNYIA
UniProt Q16659: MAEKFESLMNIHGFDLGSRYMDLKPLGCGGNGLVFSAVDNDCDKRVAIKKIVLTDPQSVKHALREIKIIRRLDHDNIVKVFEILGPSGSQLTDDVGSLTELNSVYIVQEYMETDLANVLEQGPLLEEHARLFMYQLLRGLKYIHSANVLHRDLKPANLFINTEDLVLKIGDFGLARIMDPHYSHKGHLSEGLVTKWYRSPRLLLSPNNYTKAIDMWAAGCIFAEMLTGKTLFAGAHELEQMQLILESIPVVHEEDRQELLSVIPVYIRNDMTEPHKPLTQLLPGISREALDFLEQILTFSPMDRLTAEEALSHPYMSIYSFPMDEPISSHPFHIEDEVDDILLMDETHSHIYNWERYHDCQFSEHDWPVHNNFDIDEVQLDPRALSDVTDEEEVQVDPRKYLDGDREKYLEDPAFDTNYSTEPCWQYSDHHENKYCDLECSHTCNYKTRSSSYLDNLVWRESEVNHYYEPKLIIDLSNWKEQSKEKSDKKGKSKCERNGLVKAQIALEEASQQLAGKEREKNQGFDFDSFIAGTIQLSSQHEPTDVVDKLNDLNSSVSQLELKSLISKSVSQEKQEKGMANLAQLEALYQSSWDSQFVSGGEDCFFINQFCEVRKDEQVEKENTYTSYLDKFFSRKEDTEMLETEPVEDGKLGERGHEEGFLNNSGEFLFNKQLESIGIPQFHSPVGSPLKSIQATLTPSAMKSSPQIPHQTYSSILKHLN
Myc-ERK3-FL-mtPDM3 (Q16659, form named): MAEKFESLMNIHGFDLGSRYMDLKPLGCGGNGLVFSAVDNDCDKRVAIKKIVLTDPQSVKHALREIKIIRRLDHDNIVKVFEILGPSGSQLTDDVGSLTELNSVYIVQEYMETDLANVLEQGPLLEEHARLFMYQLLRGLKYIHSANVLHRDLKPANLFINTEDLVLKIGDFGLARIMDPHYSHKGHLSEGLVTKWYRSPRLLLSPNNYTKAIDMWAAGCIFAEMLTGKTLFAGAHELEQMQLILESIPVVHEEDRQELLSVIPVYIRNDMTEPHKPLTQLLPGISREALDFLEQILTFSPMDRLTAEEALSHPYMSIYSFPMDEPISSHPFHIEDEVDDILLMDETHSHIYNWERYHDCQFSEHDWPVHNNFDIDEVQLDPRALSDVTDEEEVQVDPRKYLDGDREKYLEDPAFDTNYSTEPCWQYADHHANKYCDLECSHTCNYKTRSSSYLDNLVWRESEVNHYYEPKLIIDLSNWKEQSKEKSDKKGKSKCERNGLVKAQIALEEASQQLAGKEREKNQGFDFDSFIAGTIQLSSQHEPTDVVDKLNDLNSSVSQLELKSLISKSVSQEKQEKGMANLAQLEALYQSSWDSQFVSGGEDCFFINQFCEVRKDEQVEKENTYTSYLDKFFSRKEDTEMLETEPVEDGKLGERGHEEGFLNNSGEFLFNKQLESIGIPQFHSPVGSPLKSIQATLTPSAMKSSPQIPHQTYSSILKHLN
Myc-ERK3-FL-mtPDM4 (Q16659, form named): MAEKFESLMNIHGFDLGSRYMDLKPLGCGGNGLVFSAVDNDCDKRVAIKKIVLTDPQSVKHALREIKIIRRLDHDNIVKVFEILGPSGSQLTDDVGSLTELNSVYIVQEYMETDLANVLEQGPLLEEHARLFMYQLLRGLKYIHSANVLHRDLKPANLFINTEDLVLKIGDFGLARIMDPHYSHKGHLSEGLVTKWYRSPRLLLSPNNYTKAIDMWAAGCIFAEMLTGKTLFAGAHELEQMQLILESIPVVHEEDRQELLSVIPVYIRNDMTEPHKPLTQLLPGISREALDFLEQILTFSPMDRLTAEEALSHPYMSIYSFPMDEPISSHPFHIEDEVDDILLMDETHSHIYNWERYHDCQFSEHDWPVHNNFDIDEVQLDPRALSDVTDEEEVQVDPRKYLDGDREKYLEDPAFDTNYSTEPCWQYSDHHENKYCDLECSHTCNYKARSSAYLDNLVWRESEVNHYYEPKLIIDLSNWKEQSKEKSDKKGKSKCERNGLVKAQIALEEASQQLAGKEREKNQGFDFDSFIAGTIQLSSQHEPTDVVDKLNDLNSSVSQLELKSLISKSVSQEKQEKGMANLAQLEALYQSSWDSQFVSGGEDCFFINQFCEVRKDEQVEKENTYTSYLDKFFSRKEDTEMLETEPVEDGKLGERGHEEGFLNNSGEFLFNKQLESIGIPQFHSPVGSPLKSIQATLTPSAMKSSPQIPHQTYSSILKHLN
Myc-ERK3-FL-mtPDM5 (Q16659, form named): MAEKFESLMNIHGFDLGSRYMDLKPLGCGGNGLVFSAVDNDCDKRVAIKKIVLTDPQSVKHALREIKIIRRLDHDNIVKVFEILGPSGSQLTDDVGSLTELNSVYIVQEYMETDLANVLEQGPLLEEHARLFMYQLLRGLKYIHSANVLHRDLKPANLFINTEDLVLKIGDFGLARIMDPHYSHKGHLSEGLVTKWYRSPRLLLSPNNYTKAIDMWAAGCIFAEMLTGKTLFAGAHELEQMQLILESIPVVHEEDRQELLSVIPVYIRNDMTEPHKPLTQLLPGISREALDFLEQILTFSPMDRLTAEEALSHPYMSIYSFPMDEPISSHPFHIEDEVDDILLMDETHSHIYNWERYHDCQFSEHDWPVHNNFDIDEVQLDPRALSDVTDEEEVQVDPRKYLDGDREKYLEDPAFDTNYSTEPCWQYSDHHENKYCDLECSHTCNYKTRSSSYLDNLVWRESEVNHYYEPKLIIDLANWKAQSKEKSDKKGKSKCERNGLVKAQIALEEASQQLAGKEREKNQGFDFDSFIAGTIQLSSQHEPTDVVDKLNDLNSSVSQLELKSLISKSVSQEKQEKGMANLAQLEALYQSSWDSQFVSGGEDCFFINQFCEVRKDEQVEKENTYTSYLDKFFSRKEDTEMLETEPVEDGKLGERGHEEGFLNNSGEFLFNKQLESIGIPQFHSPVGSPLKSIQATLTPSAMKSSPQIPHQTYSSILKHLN
Myc-ERK3-FL-mtPDM1 (Q16659, form named): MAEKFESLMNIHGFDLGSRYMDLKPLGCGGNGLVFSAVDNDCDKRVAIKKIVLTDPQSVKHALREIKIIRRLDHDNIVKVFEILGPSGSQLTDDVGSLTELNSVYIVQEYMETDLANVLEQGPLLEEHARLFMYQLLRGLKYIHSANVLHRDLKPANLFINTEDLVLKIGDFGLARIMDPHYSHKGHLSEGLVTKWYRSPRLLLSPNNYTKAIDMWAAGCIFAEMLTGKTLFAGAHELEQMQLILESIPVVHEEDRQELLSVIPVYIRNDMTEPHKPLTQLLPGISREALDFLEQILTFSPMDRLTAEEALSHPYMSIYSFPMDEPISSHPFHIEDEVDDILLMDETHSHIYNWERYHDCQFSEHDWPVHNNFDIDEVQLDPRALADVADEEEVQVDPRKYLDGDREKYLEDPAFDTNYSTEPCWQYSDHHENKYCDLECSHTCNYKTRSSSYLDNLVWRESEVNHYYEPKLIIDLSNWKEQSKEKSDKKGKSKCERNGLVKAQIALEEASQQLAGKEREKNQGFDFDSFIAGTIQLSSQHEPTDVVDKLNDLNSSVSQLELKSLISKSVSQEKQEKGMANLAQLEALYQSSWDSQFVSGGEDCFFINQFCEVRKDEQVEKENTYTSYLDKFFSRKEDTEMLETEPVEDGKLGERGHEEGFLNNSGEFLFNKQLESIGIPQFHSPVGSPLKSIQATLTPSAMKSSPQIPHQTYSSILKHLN

Assays:
[1] = target: HA-FBXW7 (UniProt Q969H0); assay: co-IP; lysates (300–400 µg) of cells expressing the tagged proteins (HEK293T where named); antibody 2 µg overnight at 4 °C, protein G Sepharose, washes in 20 mM Tris pH 8.0, 100 mM NaCl, 1 mM EDTA, 0.5% NP-40; Western blotting; Fig. 3d with MG132 10 µM, 4 h
[2] = target: Flag-FBXW7 (UniProt Q969H0); assay: co-IP; ex vivo Flag-tag pulldown of Flag-tagged FBXW subfamily members; endogenous ERK3 detected by Western blotting
[3] = target: T1, FBXW4 (Flag-tagged) (UniProt P57775); assay: as above
T1 sequence: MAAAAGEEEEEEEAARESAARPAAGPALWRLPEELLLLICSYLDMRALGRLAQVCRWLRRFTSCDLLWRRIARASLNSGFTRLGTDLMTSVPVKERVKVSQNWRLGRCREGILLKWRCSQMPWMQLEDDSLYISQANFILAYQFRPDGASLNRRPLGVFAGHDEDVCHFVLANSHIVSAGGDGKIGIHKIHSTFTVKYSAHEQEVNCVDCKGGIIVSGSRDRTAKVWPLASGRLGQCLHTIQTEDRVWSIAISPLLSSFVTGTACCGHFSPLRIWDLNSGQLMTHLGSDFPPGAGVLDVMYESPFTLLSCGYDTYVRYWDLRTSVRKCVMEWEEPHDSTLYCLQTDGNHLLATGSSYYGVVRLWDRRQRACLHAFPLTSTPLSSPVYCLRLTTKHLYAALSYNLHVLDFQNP

[4] = target: T2, FBXW2 (Flag-tagged) (UniProt Q9UKT8); assay: as above
T2 sequence: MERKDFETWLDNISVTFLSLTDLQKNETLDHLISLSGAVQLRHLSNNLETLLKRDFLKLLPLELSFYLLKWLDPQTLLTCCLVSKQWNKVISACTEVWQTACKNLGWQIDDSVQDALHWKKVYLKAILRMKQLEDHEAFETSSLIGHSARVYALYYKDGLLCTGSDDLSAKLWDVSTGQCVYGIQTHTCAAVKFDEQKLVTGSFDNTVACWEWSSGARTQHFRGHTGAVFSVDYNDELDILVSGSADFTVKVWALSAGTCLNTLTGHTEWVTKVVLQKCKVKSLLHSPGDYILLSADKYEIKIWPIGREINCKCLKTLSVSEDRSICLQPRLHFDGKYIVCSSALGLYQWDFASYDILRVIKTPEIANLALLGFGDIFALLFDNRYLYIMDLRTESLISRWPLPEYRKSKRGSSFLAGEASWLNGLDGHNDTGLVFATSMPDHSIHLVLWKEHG

[5] = target: T3, FBXW8 (Flag-tagged) (UniProt Q8N3Y1); assay: as above
T3 sequence: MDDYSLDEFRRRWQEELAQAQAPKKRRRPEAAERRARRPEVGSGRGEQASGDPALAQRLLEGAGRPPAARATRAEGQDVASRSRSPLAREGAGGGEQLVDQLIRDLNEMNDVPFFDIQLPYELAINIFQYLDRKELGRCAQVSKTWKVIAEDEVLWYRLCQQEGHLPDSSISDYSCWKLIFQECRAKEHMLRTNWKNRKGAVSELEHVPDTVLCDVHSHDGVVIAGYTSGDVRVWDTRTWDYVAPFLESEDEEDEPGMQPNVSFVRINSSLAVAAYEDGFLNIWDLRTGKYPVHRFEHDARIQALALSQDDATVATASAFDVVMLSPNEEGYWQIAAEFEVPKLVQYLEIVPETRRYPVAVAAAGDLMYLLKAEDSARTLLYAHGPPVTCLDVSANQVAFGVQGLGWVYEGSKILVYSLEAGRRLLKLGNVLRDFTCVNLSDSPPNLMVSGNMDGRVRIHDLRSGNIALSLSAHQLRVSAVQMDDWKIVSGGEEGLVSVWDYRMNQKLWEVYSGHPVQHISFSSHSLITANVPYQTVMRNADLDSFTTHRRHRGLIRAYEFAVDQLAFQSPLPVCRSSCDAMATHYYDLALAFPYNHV

[6] = target: βTrCP1 (Flag-tagged) (UniProt Q9Y297); assay: as above
[7] = target: βTrCP2 (Flag-tagged) (UniProt Q9UKB1); assay: as above
[8] = target: FBXW5 (Flag-tagged) (UniProt Q969U6); assay: as above
[9] = target: Myc-FBXW7-1–707 (full-length FBXW7) (UniProt Q969H0); assay: co-IP; lysates (300–400 µg) of cells expressing the tagged proteins (HEK293T where named); antibody 2 µg overnight at 4 °C, protein G Sepharose, washes in 20 mM Tris pH 8.0, 100 mM NaCl, 1 mM EDTA, 0.5% NP-40; Western blotting; Fig. 3d with MG132 10 µM, 4 h
[10] = target: Myc-FBXW7-1–278 (WD40/F-box domain-deleted mutant) (UniProt Q969H0); assay: as above
[11] = target: T4, FBXO17 (UniProt Q96EF6); assay: as above
T4 sequence: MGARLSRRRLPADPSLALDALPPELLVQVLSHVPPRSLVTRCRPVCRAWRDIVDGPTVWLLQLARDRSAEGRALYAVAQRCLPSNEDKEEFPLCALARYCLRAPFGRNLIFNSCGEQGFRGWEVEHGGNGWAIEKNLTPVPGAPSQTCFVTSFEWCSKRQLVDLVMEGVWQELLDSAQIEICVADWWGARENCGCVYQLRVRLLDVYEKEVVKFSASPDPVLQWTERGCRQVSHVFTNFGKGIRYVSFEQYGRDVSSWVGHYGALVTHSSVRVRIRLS

[12] = target: cullin 4B (UniProt Q13620); assay: as above
[13] = target: cullin 1 (UniProt Q13616); assay: as above
[14] = target: T5, FBXO6 (UniProt Q9NRD1); assay: as above
T5 sequence: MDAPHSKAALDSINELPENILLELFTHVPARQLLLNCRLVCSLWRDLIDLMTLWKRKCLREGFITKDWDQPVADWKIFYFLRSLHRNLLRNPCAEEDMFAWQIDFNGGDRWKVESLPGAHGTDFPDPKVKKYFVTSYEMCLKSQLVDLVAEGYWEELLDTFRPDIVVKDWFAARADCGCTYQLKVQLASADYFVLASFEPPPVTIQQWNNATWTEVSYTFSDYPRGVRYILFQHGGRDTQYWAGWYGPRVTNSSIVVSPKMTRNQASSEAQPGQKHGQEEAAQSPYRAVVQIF

[15] = target: FBXW7 (tag not stated; Fig. 1f, FBXW7-wt of Fig. 3d, Fig. 4g) (UniProt Q969H0); assay: as above
[16] = target: FBXO4 (UniProt Q9UKT5); assay: as above
[17] = target: Myc-FBXW7-1–324 (WD40 domain-deleted mutant) (UniProt Q969H0); assay: as above
[18] = target: Flag-FBXW7 (UniProt Q969H0); assay: as above

Substance: Myc-ERK3-FL-mtPDM3 (from UniProt Q16659 1-721)
binding [1]: binds

Substance: Myc-ERK3-1–721 (from UniProt Q16659 1-721)
binding [1]: binds

Substance: Myc-ERK3-FL-mtPDM4 (from UniProt Q16659 1-721)
binding [1]: binds

Substance: Myc-ERK3-FL-mtPDM5 (from UniProt Q16659 1-721)
binding [1]: binds

Substance: Myc-ERK3-1–481 (from UniProt Q16659 1-481) (domain or fragment)
binding [1]: binds

Substance: Myc-ERK3-dN481 (from UniProt Q16659 481-721) (domain or fragment)
binding [18]: no binding

The remaining lines, values ahead:

binding [1]: no binding
Substance: Myc-ERK3-1–340 (from UniProt Q16659 1-340) (domain or fragment)

binding [2]: binds
binding [3]: no binding
binding [4]: no binding
binding [5]: no binding
binding [6]: no binding
binding [7]: no binding
binding [8]: no binding
Substance: endogenous ERK3 (from UniProt Q16659 1-721)

binding [1]: binds
Substance: Myc-ERK3-FL-mtPDM1 (from UniProt Q16659 1-721)

binding [9]: binds
Substance: Gal4-ERK3 (from UniProt Q16659 1-721)

binding [10]: no binding
binding [11]: binds
binding [12]: binds
binding [13]: binds
binding [14]: binds
binding [15]: binds
binding [16]: binds
binding [17]: no binding
binding [9]: binds
Substance: ERK3 (construct not stated; Figs. 1c, 1d, 1f, 3c) (from UniProt Q16659 1-721)

binding [1]: no binding
Substance: Myc-ERK3-1–363 (from UniProt Q16659 1-363) (domain or fragment)
